Among the data in the supplement of paper PMC4604168 (melanoma cell lines) are cell count values, retold here.

Some of the results follow. Most values come without repeats; read them as rough.
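Also: cells treated in 1,536-well plates, then fixed and DAPI-stained, with nuclei counted from automated high-throughput microscope images.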

This assay concerns SkMel2. In words: cell count relative to DMSO control; melanoma cells; higher = more viable cells. The following applies: library dose: standard library concentration; 72 h.
Consider `CN(c1ncccc1CNc1nc(Nc2ccc3c(c2)CC(=O)N3)ncc1C(F)(F)F)S(C)(=O)=O` + O=c1cc(-c2cccc3c2Sc2ccccc2S3)oc(N2CCOCC2)c1 [KU55933] (first compound 0.4 µM, partner dose 5 µM), for which the cell count is 92.4%.
On to `CN(c1ncccc1CNc1nc(Nc2ccc3c(c2)CC(=O)N3)ncc1C(F)(F)F)S(C)(=O)=O` + O=C(O)C(=O)Nc1sc2c(c1C(=O)O)CCNC2 [TCS401] (first compound 0.4 µM, partner dose 8.33333 µM), for which the cell count is 77.3%.
The same measure for `NC1(c2ccc(-c3nc4ccn5c(=O)[nH]nc5c4cc3-c3ccccc3)cc2)CCC1` + O=S(=O)(c1ccccc1)N(CC(F)(F)F)c1ccc(C(O)(C(F)(F)F)C(F)(F)F)cc1 [T0901317] (first compound 2 µM, partner dose 7 µM): 59.4%; for `CCCS(=O)(=O)Nc1ccc(F)c(C(=O)c2c[nH]c3ncc(Cl)cc23)c1F` + O=S(=O)(c1ccccc1)N(CC(F)(F)F)c1ccc(C(O)(C(F)(F)F)C(F)(F)F)cc1 [T0901317] (first compound 0.4 µM, partner dose 7 µM): 97.2%; for `CN(c1ncccc1CNc1nc(Nc2ccc3c(c2)CC(=O)N3)ncc1C(F)(F)F)S(C)(=O)=O` + O=C(Nc1ccccc1)c1cc([N+](=O)[O-])ccc1Cl [GW9662] (first compound 0.4 µM, partner dose 10 µM): 107%.
With `CS(=O)(=O)c1ccc(C(=O)Nc2ccc(Cl)c(-c3ccccn3)c2)c(Cl)c1` [vismodegib] + COc1cc2ncnc(Nc3ccc(Oc4ccccc4)cc3)c2cc1OC [SrcI1] (first compound 5 µM, partner dose 10 µM) the figure was 81.8%; with `NC1(c2ccc(-c3nc4ccn5c(=O)[nH]nc5c4cc3-c3ccccc3)cc2)CCC1` + O=C(O)C(=O)Nc1sc2c(c1C(=O)O)CCNC2 [TCS401] (first compound 2 µM, partner dose 8.33333 µM), 71.3%.
The same measure for `NC1(c2ccc(-c3nc4ccn5c(=O)[nH]nc5c4cc3-c3ccccc3)cc2)CCC1` + COc1ccc(COc2ccc(Cc3cnc(N)nc3N)cc2OC)cc1 [GW2580] (first compound 2 µM, partner dose 5 µM): 61.8%; for `CS(=O)(=O)c1ccc(C(=O)Nc2ccc(Cl)c(-c3ccccn3)c2)c(Cl)c1` [vismodegib] + Cn1cc(/C=C2\C(=O)Nc3cccnc32)c2ccccc21 [GW441756] (first compound 5 µM, partner dose 2 µM): 98.1%.
On to `NC1(c2ccc(-c3nc4ccn5c(=O)[nH]nc5c4cc3-c3ccccc3)cc2)CCC1` + CCN(CC)CCCCNc1ncc2cc(-c3cc(OC)cc(OC)c3)c(NC(=O)NC(C)(C)C)nc2n1 [PD173074] (first compound 2 µM, partner dose 0.5 µM), for which the cell count was 71.7%.
Compound `C=C(c1ccc(C(=O)O)cc1)c1cc2c(cc1C)C(C)(C)CCC2(C)C` [Bexarotene] + COc1ccc(-c2ccc3c(N4CCOCC4)nc(N4C[C@@H](C)O[C@@H](C)C4)nc3n2)cc1CO [KU0063794] (first compound 10 µM, partner dose 0.1 µM) showed a cell count of 79.7%.
Compound `NC1(c2ccc(-c3nc4ccn5c(=O)[nH]nc5c4cc3-c3ccccc3)cc2)CCC1` + c1cc(-c2cnn3cc(-c4ccc(OCCN5CCCCC5)cc4)cnc23)ccn1 [Dorsomorphin] (first compound 2 µM, partner dose 2 µM) registered a cell count of 71.5%.
Regarding `CN(c1ncccc1CNc1nc(Nc2ccc3c(c2)CC(=O)N3)ncc1C(F)(F)F)S(C)(=O)=O` + O=S(=O)(c1ccccc1)N(CC(F)(F)F)c1ccc(C(O)(C(F)(F)F)C(F)(F)F)cc1 [T0901317] (first compound 0.4 µM, partner dose 7 µM), the cell count is 65%.
The same measure for `C=C(c1ccc(C(=O)O)cc1)c1cc2c(cc1C)C(C)(C)CCC2(C)C` [Bexarotene] + O=C1NC(=O)/C(=C/c2ccc(-c3ccc(F)cc3O)o2)S1 [AS252424] (first compound 10 µM, partner dose 5 µM): 79.5%; for `CCCS(=O)(=O)Nc1ccc(F)c(C(=O)c2c[nH]c3ncc(Cl)cc23)c1F` + CCCCCCCCCCCC1=C(O)C(=O)C=C(O)C1=O [Embelin] (first compound 0.4 µM, partner dose 6 µM): 97.5%.
